pIC50: −log10 of the molar value. By IC50 is meant the dose at which the fit gives 50% viability; a limit (>, <) means that the fit lies beyond the doses tested. For AUC the same curve is integrated over the 256-fold range of doses and scaled to a fraction: 1 means no effect, lower means more sensitive. For part of these data: Where the top dose is marked as inferred, it was derived from the fitted curves, not read from the paper.
Legend:
Experiment in all cases: Viability of human cancer cell lines after 72 h of drug (GDSC screen)
QL-XI-92 = compound: C=CC(=O)Nc1cc(NC(=O)c2ccc(C)c(NC(=O)c3ccno3)c2)cc(C(F)(F)F)c1 [QL-XI-92]; conditions: top dose 10.24 µM; top dose inferred
Method: (§1)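 Human cancer cell lines in 384-well plates, medium with 10% serum, drug for 72 h over a 256-fold dose range (nine 2-fold or five 4-fold steps up to the top dose). Adherent lines were fixed and stained with the nucleic acid dye Syto60, suspension lines read with resazurin; signal relative to control wells, capped at 0 and 100%. One two-parameter sigmoid per drug and line, fitted in a mixed model over all curves with the slope shared within a line.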

Vinorelbine = compound: CCC1=C[C@@H]2CN(C1)Cc1c([nH]c3ccccc13)[C@@](C(=O)OC)(c1cc3c(cc1OC)N(C)[C@H]1[C@@](O)(C(=O)OC)[C@H](OC(C)=O)[C@]4(CC)C=CCN5CC[C@]31[C@@H]54)C2 [Vinorelbine]; conditions: top dose 0.064 µM; top dose inferred
Method: as §1

AG-014699 = compound: CNCc1ccc(-c2[nH]c3cc(F)cc4c3c2CCNC4=O)cc1 [AG-014699]; conditions: top dose 5 µM; top dose inferred
Method: as §1

XL-184 = compound: COc1cc2nccc(Oc3ccc(NC(=O)C4(C(=O)Nc5ccc(F)cc5)CC4)cc3)c2cc1OC [XL-184]; conditions: top dose 5.12 µM; top dose inferred
Method: as §1

WHI-P97 = compound: COc1cc2ncnc(Nc3cc(Br)c(O)c(Br)c3)c2cc1OC [WHI-P97]; conditions: top dose 10.24 µM; top dose inferred
Method: as §1

Gefitinib = compound: COc1cc2ncnc(Nc3ccc(F)c(Cl)c3)c2cc1OCCCN1CCOCC1 [Gefitinib]; conditions: top dose 0.5 µM
Method: as §1

Phenformin = compound: N=C(N)NC(=N)NCCc1ccccc1 [Phenformin]; conditions: top dose 4000 µM; top dose inferred
Method: as §1

S-Trityl-L-cysteine = compound: N[C@@H](CSC(c1ccccc1)(c1ccccc1)c1ccccc1)C(=O)O [S-Trityl-L-cysteine]; conditions: top dose 5.12 µM; top dose inferred
Method: as §1

EHT 1864 = compound: O=c1cc(CN2CCOCC2)occ1OCCCCCSc1ccnc2cc(C(F)(F)F)ccc12 [EHT 1864]; conditions: top dose 10 µM; top dose inferred
Method: as §1

NU-7441 = compound: O=c1cc(N2CCOCC2)oc2c(-c3cccc4c3sc3ccccc34)cccc12 [NU-7441]; conditions: top dose 2 µM; top dose inferred
Method: as §1

Cell Line	AUC (QL-XI-92)	pIC50 (QL-XI-92)	AUC (Vinorelbine)	pIC50 (Vinorelbine)	AUC (AG-014699)	pIC50 (AG-014699)	AUC (XL-184)	pIC50 (XL-184)	AUC (WHI-P97)	pIC50 (WHI-P97)	AUC (Gefitinib)	pIC50 (Gefitinib)	AUC (Phenformin)	pIC50 (Phenformin)	AUC (S-Trityl-L-cysteine)	pIC50 (S-Trityl-L-cysteine)	AUC (EHT 1864)	pIC50 (EHT 1864)	AUC (NU-7441)	pIC50 (NU-7441)
NCI-H69 (small cell lung carcinoma, suspension)	0.923	< 4.99	0.59	8.14	0.985	< 5.30	0.969	< 5.29	0.986	< 4.99	0.986	< 6.30	0.843	2.48	0.634	6.10	0.967	< 5.00	0.984	< 5.70
NCI-H187 (small cell lung carcinoma, suspension)	0.934	< 4.99	0.715	7.76	0.986	< 5.30	0.987	< 5.29	0.988	< 4.99	0.988	< 6.30	0.552	3.45	0.858	5.32	0.949	< 5.00	0.98	< 5.70
NCI-H211 (small cell lung carcinoma, adherent)	0.976	< 4.99	0.525	8.33	0.986	< 5.30	0.925	< 5.29	0.959	< 4.99	0.984	< 6.30	0.597	3.34	0.64	6.11	0.954	< 5.00	0.978	< 5.70
NCI-H226 (lung squamous cell carcinoma, adherent)	0.985	< 4.99	0.771	7.59	0.94	< 5.30	0.869	< 5.29	0.976	< 4.99	0.967	< 6.30	0.859	2.45	0.962	< 5.29	0.987	< 5.00	0.987	< 5.70
NCI-H446 (small cell lung carcinoma, semi-adherent)	0.892	< 4.99	0.7	7.81	0.986	< 5.30	0.929	< 5.29	0.939	< 4.99	0.984	< 6.30	0.812	2.63	0.757	5.72	0.985	< 5.00	0.931	< 5.70
NCI-H510A (small cell lung carcinoma, semi-adherent)	0.932	< 4.99	0.666	7.95	0.988	< 5.30	0.949	< 5.29	0.986	< 4.99	0.988	< 6.30	0.82	2.69	0.576	6.29	0.923	< 5.00	0.99	< 5.70
NCI-H524 (small cell lung carcinoma, suspension)	0.955	< 4.99	0.912	< 7.19	0.961	< 5.30	0.991	< 5.29	0.991	< 4.99	0.981	< 6.30	0.635	3.25	0.634	6.14	0.99	< 5.00	0.991	< 5.70
NCI-H526 (small cell lung carcinoma, suspension)	0.985	< 4.99	0.613	8.09	0.962	< 5.30	0.97	< 5.29	0.962	< 4.99	0.979	< 6.30	0.795	2.75	0.879	5.31	0.958	< 5.00	0.932	< 5.70
NCI-H747 (large intestine, adherent)	0.851	< 4.99	0.782	7.48	0.98	< 5.30	0.909	< 5.29	0.865	< 4.99	0.968	< 6.30	0.622	3.23	0.879	< 5.29	0.94	< 5.00	0.982	< 5.70
NCI-H847 (small cell lung carcinoma, adherent)	0.797	5.42	0.462	8.49	0.993	< 5.30	0.864	5.50	0.94	< 4.99	0.993	< 6.30	0.871	2.59	0.626	6.18	0.982	< 5.00	0.984	< 5.70
NCI-H1092 (small cell lung carcinoma, suspension)	0.939	< 4.99	0.862	7.25	0.987	< 5.30	0.972	< 5.29	0.984	< 4.99	0.987	< 6.30	0.957	< 2.40	0.933	< 5.29	0.989	< 5.00	0.99	< 5.70
NCI-H1155 (large cell lung carcinoma, suspension)	0.94	< 4.99	0.977	< 7.19	0.963	< 5.30	0.928	< 5.29	0.978	< 4.99	0.982	< 6.30	0.712	3.06	0.818	5.65	0.915	< 5.00	0.945	< 5.70

From the supplement of paper PMC4967469
